The values below come from article PMC9911399, “Two distinct binding modes provide the RNA-binding protein RbFox with extraordinary sequence specificity”.

Where a chain is given by its changes, count along the chain named. The list shows a part of the results.

T1: RBFOX1 RRM (Homo sapiens, UniProt Q9NWB1 109-208)
T1 sequence: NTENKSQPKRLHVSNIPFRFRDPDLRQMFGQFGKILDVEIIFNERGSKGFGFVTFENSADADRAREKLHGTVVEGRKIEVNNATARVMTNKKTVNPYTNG

B1: ACGCCCA (DNA:RNA)
RNA: GGGAGACCGGAAUUCAGAUUGUCCACGCCCAUUAAAUCCCGUCGUAGCCACCA
DNA 1: CAATCTGAATTCCGGTCTCCC
DNA 2: TGGTGGCTACGACGGGATT
B2: CGGGAUA (DNA:RNA)
RNA: B1 RNA with A25C, C26G, C28G, C29A, C30U
DNA 1: CAATCTGAATTCCGGTCTCCC
DNA 2: TGGTGGCTACGACGGGATT
B3: GCAACAA (DNA:RNA)
RNA: B1 RNA with A25G, G27A, C28A, C30A
DNA 1: CAATCTGAATTCCGGTCTCCC
DNA 2: TGGTGGCTACGACGGGATT
B4: CCCUUAG (DNA:RNA)
RNA: B1 RNA with A25C, G27C, C28U, C29U, C30A, A31G
DNA 1: CAATCTGAATTCCGGTCTCCC
DNA 2: TGGTGGCTACGACGGGATT
B5: UCUAUGG (DNA:RNA)
RNA: B1 RNA with A25U, G27U, C28A, C29U, C30G, A31G
DNA 1: CAATCTGAATTCCGGTCTCCC
DNA 2: TGGTGGCTACGACGGGATT
B6: CAUUGGC (DNA:RNA)
RNA: GGGAGACCGGAAUUCAGAUUGUCCCAUUGGCUUAAAUCCCGUCGUAGCCACCA
DNA 1: CAATCTGAATTCCGGTCTCCC
DNA 2: TGGTGGCTACGACGGGATT
B7: UCGUCCU (DNA:RNA)
RNA: B1 RNA with A25U, C28U, A31U
DNA 1: CAATCTGAATTCCGGTCTCCC
DNA 2: TGGTGGCTACGACGGGATT
B8: GCCAGGC (DNA:RNA)
RNA: B6 RNA with C25G, A26C, U27C, U28A
DNA 1: CAATCTGAATTCCGGTCTCCC
DNA 2: TGGTGGCTACGACGGGATT
B9: CCUACUG (DNA:RNA)
RNA: B1 RNA with A25C, G27U, C28A, C30U, A31G
DNA 1: CAATCTGAATTCCGGTCTCCC
DNA 2: TGGTGGCTACGACGGGATT
B10: GCGCAUG (DNA:RNA)
RNA: B1 RNA with A25G, C29A, C30U, A31G
DNA 1: CAATCTGAATTCCGGTCTCCC
DNA 2: TGGTGGCTACGACGGGATT
B11: CUAGCUC (DNA:RNA)
RNA: B6 RNA with A26U, U27A, U28G, G29C, G30U
DNA 1: CAATCTGAATTCCGGTCTCCC
DNA 2: TGGTGGCTACGACGGGATT
B12: GAUUCGA (DNA:RNA)
RNA: B6 RNA with C25G, G29C, C31A
DNA 1: CAATCTGAATTCCGGTCTCCC
DNA 2: TGGTGGCTACGACGGGATT
B13: UUUGAUG (DNA:RNA)
RNA: B6 RNA with C25U, A26U, U28G, G29A, G30U, C31G
DNA 1: CAATCTGAATTCCGGTCTCCC
DNA 2: TGGTGGCTACGACGGGATT
B14: AUCUUAC (DNA:RNA)
RNA: B6 RNA with C25A, A26U, U27C, G29U, G30A
DNA 1: CAATCTGAATTCCGGTCTCCC
DNA 2: TGGTGGCTACGACGGGATT
B15: CUACCGA (DNA:RNA)
RNA: B1 RNA with A25C, C26U, G27A, C30G
DNA 1: CAATCTGAATTCCGGTCTCCC
DNA 2: TGGTGGCTACGACGGGATT
B16: CGGUUUA (DNA:RNA)
RNA: B1 RNA with A25C, C26G, C28U, C29U, C30U
DNA 1: CAATCTGAATTCCGGTCTCCC
DNA 2: TGGTGGCTACGACGGGATT
B17: CCUUUAC (DNA:RNA)
RNA: B6 RNA with A26C, G29U, G30A
DNA 1: CAATCTGAATTCCGGTCTCCC
DNA 2: TGGTGGCTACGACGGGATT
B18: CCGAGUC (DNA:RNA)
RNA: B6 RNA with A26C, U27G, U28A, G30U
DNA 1: CAATCTGAATTCCGGTCTCCC
DNA 2: TGGTGGCTACGACGGGATT
B19: AUUCUUA (DNA:RNA)
RNA: B1 RNA with C26U, G27U, C29U, C30U
DNA 1: CAATCTGAATTCCGGTCTCCC
DNA 2: TGGTGGCTACGACGGGATT
B20: AUACUGG (DNA:RNA)
RNA: B1 RNA with C26U, G27A, C29U, C30G, A31G
DNA 1: CAATCTGAATTCCGGTCTCCC
DNA 2: TGGTGGCTACGACGGGATT
B21: AGUGGCG (DNA:RNA)
RNA: B1 RNA with C26G, G27U, C28G, C29G, A31G
DNA 1: CAATCTGAATTCCGGTCTCCC
DNA 2: TGGTGGCTACGACGGGATT
B22: UAUCAAA (DNA:RNA)
RNA: B1 RNA with A25U, C26A, G27U, C29A, C30A
DNA 1: CAATCTGAATTCCGGTCTCCC
DNA 2: TGGTGGCTACGACGGGATT
B23: GAACGCC (DNA:RNA)
RNA: B6 RNA with C25G, U27A, U28C, G30C
DNA 1: CAATCTGAATTCCGGTCTCCC
DNA 2: TGGTGGCTACGACGGGATT
B24: GCUAAAU (DNA:RNA)
RNA: B1 RNA with A25G, G27U, C28A, C29A, C30A, A31U
DNA 1: CAATCTGAATTCCGGTCTCCC
DNA 2: TGGTGGCTACGACGGGATT
B25: GCUGAAA (DNA:RNA)
RNA: B1 RNA with A25G, G27U, C28G, C29A, C30A
DNA 1: CAATCTGAATTCCGGTCTCCC
DNA 2: TGGTGGCTACGACGGGATT
B26: CGAACUG (DNA:RNA)
RNA: B1 RNA with A25C, C26G, G27A, C28A, C30U, A31G
DNA 1: CAATCTGAATTCCGGTCTCCC
DNA 2: TGGTGGCTACGACGGGATT
B27: CAGAGUU (DNA:RNA)
RNA: B6 RNA with U27G, U28A, G30U, C31U
DNA 1: CAATCTGAATTCCGGTCTCCC
DNA 2: TGGTGGCTACGACGGGATT
B28: ACCCAGG (DNA:RNA)
RNA: B1 RNA with G27C, C29A, C30G, A31G
DNA 1: CAATCTGAATTCCGGTCTCCC
DNA 2: TGGTGGCTACGACGGGATT
B29: CGAACUU (DNA:RNA)
RNA: B1 RNA with A25C, C26G, G27A, C28A, C30U, A31U
DNA 1: CAATCTGAATTCCGGTCTCCC
DNA 2: TGGTGGCTACGACGGGATT
B30: CGACUAU (DNA:RNA)
RNA: B1 RNA with A25C, C26G, G27A, C29U, C30A, A31U
DNA 1: CAATCTGAATTCCGGTCTCCC
DNA 2: TGGTGGCTACGACGGGATT
B31: GGCAUUU (DNA:RNA)
RNA: GGGAGACCGGAAUUCAGAUUGUCCGGCAUUUUUAAAUCCCGUCGUAGCCACCA
DNA 1: CAATCTGAATTCCGGTCTCCC
DNA 2: TGGTGGCTACGACGGGATT

For the assay, the target named is T1, RBFOX1 RRM. The assay can be described thus: EMSA; HiTS-Eq, 1 nM pool, 10 min; buffer printed only for the single-RNA assays: 10 mM Tris pH 7.5, 150 mM NaCl, 3.4 mM EDTA, 0.001% NP-40, 30 C. Particulars: tags: His6 N-terminal (pET28a); label: 5' 32P. A digest of the protocol: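 A pool of RNA with 7 randomized nucleotides, 5′-radiolabelled and with DNA-annealed flanks, was equilibrated at 1 nM for 10 min in 50 µL with purified RbFox RRM, wild type or mutant, across increasing protein concentrations. Free RNA was separated by 8% native PAGE, excised, reverse-transcribed, barcoded by PCR and sequenced. Relative association constants were obtained from read-count changes of each RNA species versus the control reaction and normalised to the cognate motif.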
As to B1, the binding signal is 0.000356 KA relative to UGCAUGU.

Consider B2, for which the binding signal was 0.0195 KA relative to UGCAUGU.

As to B3, the binding signal was 0.00553 KA relative to UGCAUGU.

For the molecule B4, the binding signal was 0.00737 KA relative to UGCAUGU.

Regarding B5, the binding signal was 0.00832 KA relative to UGCAUGU.

Regarding B6, the binding signal was 0.0132 KA relative to UGCAUGU.

As to B7, the binding signal was 0.0102 KA relative to UGCAUGU.

Turning to B8, the binding signal was 0.0132 KA relative to UGCAUGU.

In the case of B9, the binding signal was 0.00803 KA relative to UGCAUGU.

Regarding B10, the binding signal was 0.843 KA relative to UGCAUGU.

As to B11, the binding signal was 0.013 KA relative to UGCAUGU.

In the case of B12, the binding signal was 0.0161 KA relative to UGCAUGU.

B13: the binding signal was 0.0244 KA relative to UGCAUGU.

B14: the binding signal is 0.000766 KA relative to UGCAUGU.

In the case of B15, the binding signal was 0.00627 KA relative to UGCAUGU.

As to B16, the binding signal is 0.0105 KA relative to UGCAUGU.

With B17, the binding signal was 0.00589 KA relative to UGCAUGU.

Regarding B18, the binding signal was 0.0112 KA relative to UGCAUGU.

As to B19, the binding signal was 0.00172 KA relative to UGCAUGU.

Take B20: the binding signal is 0.00795 KA relative to UGCAUGU.

Consider B21, for which the binding signal was 0.0184 KA relative to UGCAUGU.

On to B22, for which the binding signal is 0.00334 KA relative to UGCAUGU.

On to B23, for which the binding signal was 0.00854 KA relative to UGCAUGU.

Turning to B24, the binding signal is 0.00755 KA relative to UGCAUGU.

Take B25: the binding signal was 0.0131 KA relative to UGCAUGU.

Take B26: the binding signal was 0.0156 KA relative to UGCAUGU.

In the case of B27, the binding signal was 0.00743 KA relative to UGCAUGU.

Take B28: the binding signal is 0.00495 KA relative to UGCAUGU.

Regarding B29, the binding signal is 0.00603 KA relative to UGCAUGU.

B30: the binding signal was 0.0034 KA relative to UGCAUGU.

Take B31: the binding signal was 0.00992 KA relative to UGCAUGU.
